Assay results reported in PubChem BioAssay (NCI).
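Grown in 96-well plates, cells were treated for 48 hours with each compound at five concentrations. Insufficient inhibition: endpoint recorded as highest concentration tested. GI50 marks 50% less growth. TGI: concentration producing complete growth inhibition.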

System: NCI-H322M lung
Test: DTP human tumour cell line panel, 48 h

| SMILES | TGI [µM] | GI50 [µM] |
| --- | --- | --- |
| Nc1ccc(Oc2ccc(C34CC5CC6C3CC3CC4C(C5)C6(c4ccc(Oc5ccc(N)c(O)c5)cc4)C3)cc2)cc1O | > 33.2 | – |
| Cc1cc(=O)oc2cc(OS(C)(=O)=O)ccc12 | > 100 | – |
| c1ccc(C(CCN2CC3CCC(CC3)C2)c2ccccc2)cc1 | > 100 | – |
| C/C(=N\N=C(N)N)C(CN(C)C)C(c1ccccc1)c1c(O)c2ccccc2oc1=O (stereo unspecified) | > 100 | – |
| CC(C)C(=O)/C=C/c1ccc(Cl)c(Cl)c1 | 80.7 | – |
| C=C(C(=O)OC)c1cc2ccccc2n1S(=O)(=O)c1ccccc1 | 26.7 | – |
| CC(=O)/C=C/c1ccc(C)cc1 | > 100 | – |
| COc1ccc(/C=C/NC=O)cc1 | > 100 | – |
| COc1ccc2c(c1)/C(=N/OC(C)=O)c1c-2c(=O)[nH]c2ccccc12 | 31.9 | 12.1 |
| O=C(NCc1ccncc1)C1COc2cc(-c3cc(=O)c4ccccc4o3)ccc2O1 (stereo unspecified) | > 100 | – |
| O=[N+]([O-])c1ccc2c(c1)c(S(=O)(=O)O)cc1nonc12 | > 100 | – |
| C1COCCOCCOCCOCCO1.CC(=O)[CH-]C(C)=O.CC(=O)[CH-]C(C)=O.CC(=O)[CH-]C(C)=O.[V] | 56.8 | 15.9 |
| c1ccc2nc(CCC3CCCCN3)ccc2c1 (stereo unspecified) | > 100 | – |
| CC(C)c1ccc(NC(=S)NC(=O)c2ccccc2)cc1 | > 100 | – |
| CC(=O)Oc1ccc(/C=C/C(=O)O[C@H]2CCCC[C@@H]2OC(=O)/C=C/c2ccc(OC(C)=O)c(OC(C)=O)c2)cc1OC(C)=O | 45.1 | – |
| CCNCCCn1c2c(c3ccc([N+](=O)[O-])cc3c1=O)C(=O)c1cc(OC)cnc1-2 | 0.926 | 0.0644 |
| CCc1nc2ccc(C(F)(F)F)cc2[nH]c1=O | > 100 | – |
| CC1(CC2=C(C(=O)NCCO[Si](C)(C)C(C)(C)C)C3(OCCO3)C2=O)OCCO1 | > 100 | – |
| CC(C)OC(=O)[C@@H](O)[C@H](CO)C1=CC([Si](C)(C)c2ccccc2)=CON1 | > 100 | – |
| CCCCCCCCCCCCCCCCCCOCC(COP(=O)([O-])OCC[N+](C)(C)C)OC (stereo unspecified) | > 74.4 | – |
| CC(=O)OC1Oc2ccccc2-c2oc(=O)c(-c3cc4ccccc4oc3=O)cc21 (stereo unspecified) | > 100 | 28 |
| CCOP(=O)(OCC)C1=NC=CC=CC1n1c(-c2ccccc2)nn(CC)c1=O (stereo unspecified) | > 100 | – |
| N#Cc1ccc(Oc2nc3ccc(C(F)(F)F)cc3nc2-c2ccccc2)cc1 | 34.9 | – |
| COc1ccc2c(c1)/C(=C/c1cc(OC)c(OC)c(OC)c1)C(=O)N2C | > 56.5 | 3.79 |
| Fc1ccc2[nH]cc(SSc3c[nH]c4ccc(F)cc34)c2c1 | 27.7 | 10.7 |
| COc1cc(/C=C(\OC(C)=O)c2ccc3c(c2)OCO3)cc(OC)c1OC | 73.8 | – |

| SMILES | TGI [µM] | GI50 [µM] |
| --- | --- | --- |
| CCOC(=O)C(O)(NC(=O)NC(O)(C(=O)OCC)C(F)(F)F)C(F)(F)F (stereo unspecified) | > 100 | – |
| Cc1cc2nc(N3C(=O)/C(=C/c4ccc(Cl)cc4)N=C3c3ccccc3)sc2cc1C | > 100 | – |
| C[C@]1(O)O[C@@H]2OCC[C@@H]2C2=C1C(=O)c1ccccc1C2=O | 33 | – |
| CC[C@@]12C=CC(=S)N(CCSc3ccccc3)[C@@H]1c1c(n(S(=O)(=O)c3ccc(OC)cc3)c3ccccc13)CC2 | > 100 | – |
| COc1ccc(-c2cc(=O)c3c(OC)c(OC)c(OC)c(OC)c3o2)c(OC)c1 | > 100 | – |
| O=C1C(NCCN2CCOCC2)=C(Cl)C(=O)c2ncccc21 | 2.41 | – |
| CS(=O)(=O)OCCN(CCOS(C)(=O)=O)c1ccc(C=O)cc1 | 37 | – |
| CCC(C(=O)c1ccccc1)C(CCCC(=O)Nc1c(C)cccc1C)N=O (stereo unspecified) | > 100 | – |
| NC1(C(=O)O)CCCC1 | > 465 | – |
| NNC(=O)/C(NC(=O)c1ccccc1)=C(\N)c1ccc(Cl)cc1 | > 100 | – |
| Cc1ccc(S(=O)(=O)NC(=O)NC(Cc2ccc(O)c(O)c2)C(=O)O)cc1 (stereo unspecified) | > 100 | – |
| c1ccc2c(c1)CC1COc3ccccc3C1O2 (stereo unspecified) | > 100 | – |
| CC1(C)CC2(C)CC1CC2NC(=O)CCN1CCOCC1 (stereo unspecified) | > 100 | – |
| Cc1ccc(S(=O)(=O)N2CCNCCN(S(=O)(=O)c3ccc(C)cc3)CCN(S(=O)(=O)c3ccc(C)cc3)CC2)cc1 | > 100 | – |
| CCOC(=O)c1cc(C(=O)c2cc(OC)c(OC)c(OC)c2)n2ccccc12 | > 100 | 0.713 |
| CC(=O)OCC1=C(C)C[C@H]([C@@H](COC(C)=O)C2CCC3C4C[C@H]5O[C@]56CC=CC(=O)[C@]6(C)C4CC[C@@]32C)OC1=O (stereo partly specified) | 7.7 | – |
| O=C(Nc1ccccc1)Nc1cccc(Oc2nnc(Cl)c3ccccc23)c1 | > 25 | 2.19 |
| NC1CC(=O)c2sccc21 (stereo unspecified) | > 100 | – |
| CC/C=C/c1cc2cc[nH]c2c2c1C(C)C[C@@H]2C (stereo partly specified) | > 100 | – |
| CC(=O)N1c2ccccc2C(C)C1c1[nH]c2ccccc2c1C (stereo unspecified) | 68.2 | – |
| O=C1CCCC2=C1CC1=C(CCCC1=O)N2c1ccccc1 | > 100 | – |
| COc1ccc(/C=N/NC(=O)c2cnc3[nH]c(=O)n(C)c(=O)c3c2)cc1 | > 100 | – |
| COC(=O)c1ccccc1C1CN=NC12Cc1cccc(C)c1C2=O (stereo unspecified) | > 100 | – |
| Oc1ccc(O)c(CNc2ccccc2)c1 | > 100 | – |
| COc1cc(OC)c(C(=O)/C=C/c2cccc(OC(C)=O)c2)cc1CC=C(C)C | > 50 | 21.4 |
| CC(NC(=O)C(N)CC(=O)O)NC(=O)N(C)C(C)(C)C (stereo unspecified) | > 100 | – |
